According to a compilation of properties of binary mixtures (doi:10.1021/acs.jpcc.9b06000):
The densities may have been worked out from excess volumes.

Assay: xn = mol fraction of the nth substance listed
Conditions: 101 kPa

CCCC[N+]1(C)CCCC1.FC(F)(F)C(F)(F)[P-](F)(F)(F)(C(F)(F)C(F)(F)F)C(F)(F)C(F)(F)F + FC1CC(F)(F)C(F)(F)C1(F)F
x1 = 1
Conditions	mass density [kg/m3]
298.1 K	1587.7
303 K	1582.4
308.1 K	1577.1
313 K	1571.9
318.1 K	1566.6
323 K	1561.4

FC1CC(F)(F)C(F)(F)C1(F)F (stereo not drawn) + CCCC[N+]1(C)CCCC1.FC(F)(F)C(F)(F)[P-](F)(F)(F)(C(F)(F)C(F)(F)F)C(F)(F)C(F)(F)F
mass density [kg/m3]
Conditions	298.1 K	303 K	308.1 K	313 K	318.1 K	323 K
x2 = 0	–	1562.9	1552	1541	1529.9	1518.7
x2 = 0.0173	1579.6	1569.3	1559	1548.5	1538	–
x2 = 0.0358	1582.5	–	1562.7	1552.7	1542.6	1532.4
x2 = 0.077	1587.5	1578.4	1569.3	1560.1	1550.9	1541.7
x2 = 0.1252	–	–	1573.2	1564.7	–	1547.7
x2 = 0.1821	1591.4	–	–	1568	1560.1	1552.2
x2 = 0.2503	1591.2	–	–	1569.9	1562.5	1555.3
x2 = 0.3337	–	1583.4	1576.6	1569.8	1563.1	1556.3
x2 = 0.4379	1588.4	1582.1	1575.7	1569.4	1563.1	1556.7
x2 = 0.6542	1585.7	–	–	1568.4	1562.6	1556.8
x2 = 0.8395	1583.7	1578.2	1572.7	1567.3	1561.9	–
